Here are results for 71 compounds from PubChem BioAssay AID488969 (Vanderbilt High Throughput Screening Facility, 2010).

The full ranking holds about 110,000 compounds; the median of “z-score” is about -0.1, and the highest 2% start at about 2. The list shows a part of the results. Active and inactive are the calls of the source.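 The calls were made as follows: active = z-score in the third read window above 3 or below -3; inactive = the rest.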

The target in this experiment is Metabotropic glutamate receptor 8 (Rattus norvegicus) (UniProt P70579). Put plainly: mGluR8 Gi/Go-coupled signaling modulation – cell-based, rat, thallium flux, HTS, primary screen (AID 488969). As to conditions: HEK293 rat mGluR8, GIRK (G protein-gated inwardly rectifying potassium channel) thallium flux, FluoZin2; at 10 µM; stronger effect = higher value; submaximal glutamate (EC20) added with thallium.
Chain of UniProt P70579 (P70579 whole entry, looked up): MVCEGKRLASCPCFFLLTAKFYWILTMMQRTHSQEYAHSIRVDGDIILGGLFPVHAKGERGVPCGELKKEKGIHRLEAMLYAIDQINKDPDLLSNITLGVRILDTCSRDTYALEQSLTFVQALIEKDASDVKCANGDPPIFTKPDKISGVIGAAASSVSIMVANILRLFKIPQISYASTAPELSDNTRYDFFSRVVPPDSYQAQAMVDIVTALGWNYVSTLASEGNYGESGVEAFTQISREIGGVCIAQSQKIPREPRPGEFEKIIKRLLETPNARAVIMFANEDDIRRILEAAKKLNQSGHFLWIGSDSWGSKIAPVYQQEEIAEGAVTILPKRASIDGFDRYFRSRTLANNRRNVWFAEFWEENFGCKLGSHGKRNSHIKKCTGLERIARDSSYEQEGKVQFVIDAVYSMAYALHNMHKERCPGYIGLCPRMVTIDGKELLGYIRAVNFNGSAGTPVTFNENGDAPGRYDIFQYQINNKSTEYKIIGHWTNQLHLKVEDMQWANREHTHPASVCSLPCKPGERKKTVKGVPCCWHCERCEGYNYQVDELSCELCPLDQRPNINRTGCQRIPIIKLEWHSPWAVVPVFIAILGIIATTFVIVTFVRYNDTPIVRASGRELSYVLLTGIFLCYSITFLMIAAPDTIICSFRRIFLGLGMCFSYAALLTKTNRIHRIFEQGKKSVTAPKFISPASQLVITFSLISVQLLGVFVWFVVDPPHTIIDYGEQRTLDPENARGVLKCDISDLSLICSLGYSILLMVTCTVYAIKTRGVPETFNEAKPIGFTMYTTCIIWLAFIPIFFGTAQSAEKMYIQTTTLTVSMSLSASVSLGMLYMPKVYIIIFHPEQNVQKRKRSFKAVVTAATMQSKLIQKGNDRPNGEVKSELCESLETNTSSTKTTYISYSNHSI
Regarding `COc1ccc(S(=O)(=O)N2CCCC(C(=O)N3CCOCC3)C2)cc1C` (stereo unspecified), the z-score is -0.0151.

In turn, `CN=C1SC(CC(=O)Nc2sc(C)c(C)c2C(=O)OC)C(=O)N1C` (stereo unspecified) returned a z-score of -0.51.

For the compound `C=CCN1C(=O)CSC1=Nc1ccc(O)cc1`, the z-score amounted to 0.0136.

In turn, `O=C(Nc1ccc(NC(=S)NC(=O)c2cccs2)cc1)c1ccccc1` came in with a z-score of -0.193.

For the compound `CCOC(=O)c1c(C)[nH]c(C)c1C(=O)COC(=O)CNC(=O)c1ccc(OCC)cc1`, the z-score was -0.688.

Compound `Cc1ccc(Nc2nc(N)nc(CN3CCCCCC3)n2)cc1` had a z-score of 0.0288.

Compound `Cc1ccc(Oc2cc(NC(=O)CCCn3nc(C)c([N+](=O)[O-])c3C)cc([N+](=O)[O-])c2)cc1` showed a z-score of -0.0677.

In the case of `CC(C)CCNC(=O)NC(=O)CSc1nnc(-c2ccccc2Br)o1`, the z-score is -0.569.

Compound `Cc1sc2ncnc(N3CCN(c4ncccn4)CC3)c2c1C` returned a z-score of -0.294.

For the compound `Cc1c(N=CN2CCOCC2)c(=O)n(C)c(=O)n1C`, the z-score was -0.0259.

Turning to `CC1=Nn2c(nnc2-c2ccco2)SC1`, the z-score was -0.0698.

`Clc1ccc(NC2(c3nnnn3C3CCCCC3)CCCCC2)cc1`: the z-score is -0.224.

In turn, `OC(COCC(F)(F)C(F)(F)C(F)(F)C(F)F)Cn1c2ccc(Cl)cc2c2cc(Cl)ccc21` (stereo unspecified) displayed a z-score of -0.101.

The compound `O=C(Nc1ccc(Cl)cc1C(=O)N1CCOCC1)c1ccco1` gave a z-score of -0.00242.

Turning to `CCCN(CCC)CCCNC(=O)c1cn(CCOC)c(=O)c2c1c1ccccc1n2C`, the z-score was -0.165.

`O=C1S/C(=C/c2ccccc2)C(=O)N1CC(O)Cn1c2ccccc2c2ccccc21` (stereo unspecified) gave a z-score of 0.716.

As to `Cc1ccc2c(C)ccc(O)c2n1`, the z-score is -0.0844.

For the compound `O=C(CN1CCN(c2ccccc2F)CC1)c1c[nH]c2ccc(F)cc12`, the z-score stood at 0.575.

Compound `O=C(c1ccco1)N1CCN(c2cc(=O)n(C3CCCCC3)c(=O)[nH]2)CC1` gave a z-score of -0.0284.

As for `CNC(=S)N/N=C/c1cn(CCOc2ccc(OC)cc2)c2ccccc12`, the z-score was -0.0929.

For `O=C(COc1ccccc1)NC(=S)N1CCc2ccccc21`, the z-score was active: 10.1.

Compound `O=C/C(=C\Nc1ccc(Cl)cn1)c1nc2cc(Cl)ccc2o1` had a z-score of -0.0503.

In turn, `O=C(COC(=O)c1ccncc1)Nc1cc(Cl)ccc1Cl` gave a z-score of 0.00286.

Compound `COC(=O)c1ccccc1NC(=O)c1noc2c1CC(C(C)(C)C)CC2` (stereo unspecified) had a z-score of 0.705.

For the compound `COc1ccc(-c2ccnc(SCC(=O)c3ccc(Br)cc3)n2)cc1`, the z-score was -0.0451.

`CCOC(=O)Nc1ccc(NC(=O)OCC)cc1`: the z-score is -0.381.

`COc1ccc(NC(=S)Nc2ccc(S(=O)(=O)N3CCOCC3)cc2)c(OC)c1` came in with a z-score of 0.108.

The compound `O=C(c1cccc(Br)c1)N1CCN(C(=O)c2cccc(Br)c2)CC1` came in with a z-score of 0.769.

The compound `CSc1sc2ccccc2[n+]1CCCS(=O)(=O)[O-]` showed a z-score of -0.661.

On to `O=C(CSc1nnc(CNC(=O)c2ccccc2F)o1)c1ccc(Cl)cc1`, for which the z-score is -0.177.

Regarding `CCOc1ccc(-n2cc(-c3ccccc3)c3c(SC(C)C(=O)OC)ncnc32)cc1` (stereo unspecified), the z-score was -0.101.

In the case of `CSc1nnc2c(n1)c(C)nn2-c1cccc(C)c1`, the z-score came to 0.3.

The compound `C=CCOc1ccc(CNC(C)(C)CO)cc1OCC` came in with a z-score of -0.0196.

As to `Cc1ccc(C(=O)CSc2ncnc3sc4c(c23)CCCC4)cc1`, the z-score was 1.34.

As for `COC(=O)c1c(F)c(F)c(NCCO)c(F)c1F`, the z-score amounted to 0.592.

On to `COc1ccc(/C(O)=C2/C(=O)C(=O)N(CCN(C)C)C2c2ccc(C)cc2)cc1Cl` (stereo unspecified), for which the z-score was -0.336.

Turning to `O=C(Nc1ccsc1C(=O)NC1CCCCC1)c1ccccc1`, the z-score was -0.315.

In turn, `COc1ccc(C(=O)N(CN2CCCC2=O)c2ccccc2OC)cc1OC` yielded a z-score of 0.587.

The compound `CC(C)Cn1c(Cc2ccccc2)n[nH]c1=S` registered a z-score of -0.0325.

`Cc1ccc(OC(=O)c2sc(Cl)nc2C)cc1C` displayed a z-score of -0.251.

The compound `CCOc1ccc(N=CC2=C(O)CC(C)(C)CC2=O)cc1` gave a z-score of 0.649.

In turn, `CCOC(=O)C(Sc1nn(C)c(=S)s1)C(C)=O` (stereo unspecified) came in with a z-score of -0.128.

For `Cc1cc(C)c(C)c(S(=O)(=O)N2CCC(C(=O)OCC(=O)N3c4ccccc4NC(=O)C3(C)C)CC2)c1C`, the z-score is 0.597.

Turning to `CN1CCN(c2ccccc2NC(=O)c2ccc(-c3cccc([N+](=O)[O-])c3)o2)CC1`, the z-score is -0.00188.

Turning to `Cc1cc(C)nc(NS(=O)(=O)c2ccc(N/C=C/C(=O)c3ccc(Cl)cc3)cc2)n1`, the z-score was -0.43.

Take `COc1ccc(CN(C)CC(=O)Nc2cc3oc4ccccc4c3cc2OC)c(OC)c1`: the z-score was -0.191.

Consider `CC1CCN(c2ccc(/C=C(\C#N)c3nn(-c4ccccc4)c(N)c3C#N)cc2[N+](=O)[O-])CC1`, for which the z-score was -0.154.

In turn, `CC1=CC=CC2=NC(=O)CC(C)(C(=O)N(CC(=O)NC(C)C)C3CCCC3)N12` (stereo unspecified) showed a z-score of -0.311.

On to `C=CCn1c(C(C)NC(=O)CCC)nc2ccccc21` (stereo unspecified), for which the z-score was found to be 1.06.

With `C/C(CC(=O)Nc1cc(C)ccn1)=N\NC(=O)COc1cccc(C)c1`, the z-score is 0.0652.

For the compound `O=C(/C=C/c1ccc(Cl)cc1Cl)NCc1ccncc1`, the z-score was determined as 0.902.

Regarding `COC(=O)c1cc2sccc2n1Cc1ccc(C)cc1`, the z-score was 0.14.

Consider `Cc1ccc(OCc2ccc(C(=O)N3CCOCC3)cc2)cc1C`, for which the z-score was 0.253.

As for `CCOC(=O)C(C)n1cnc2c(nnn2-c2cccc(Cl)c2)c1=O` (stereo unspecified), the z-score is -0.127.

Turning to `COc1ccc(N2CC(O)=C(c3n(C)c4ccccc4[n+]3C)C2=N)cc1`, the z-score is -0.118.

As for `O=C(NCc1ccc(F)cc1)C1CCC(=O)N1CCc1ccccc1` (stereo unspecified), the z-score is -0.33.

`CSc1nsc(SC)c1NC(=O)OCCc1ccccn1` showed a z-score of 0.0478.

Compound `CCc1ccc(S(=O)(=O)NCc2csc(C)n2)s1` returned a z-score of 0.347.

In turn, `COCCN(C(=S)Nc1cccc(C)c1)C(C)c1cccs1` (stereo unspecified) came in with a z-score of -0.946.

`Cn1c(=O)c2c(SCC(=O)N3CCOCC3)nc(C3CC3)nc2n(C)c1=O` displayed a z-score of -0.312.

In turn, `CCc1ccc(C2=NN(S(C)(=O)=O)C(c3cccs3)C2)cc1` (stereo unspecified) had a z-score of -0.336.

In the case of `COc1cccc2sc(NC(=O)c3ccc(S(=O)(=O)N4CCOCC4)cc3)nc12`, the z-score was 0.875.

As to `CC(=O)c1cccc(N(CC(=O)O)S(C)(=O)=O)c1`, the z-score turned out to be 0.52.

`O=C(CSc1ccc2nnc(-c3cccnc3)n2n1)NCc1ccc2c(c1)OCO2`: the z-score was determined as 0.75.

Compound `CC(C)C(=O)NC(Nc1ccccc1F)C(Cl)(Cl)Cl` (stereo unspecified) came in with a z-score of -0.185.

`CC(OC(=O)CCCc1nc2ccccc2s1)C(N)=O` (stereo unspecified) yielded a z-score of -0.282.

For `COc1ccc(-c2csc(Nc3cccnc3)n2)cc1`, the z-score was -0.607.

With `Nc1c2c(=O)oc(-c3ccccc3)cc2nn1-c1ccccc1`, the z-score is -0.396.

`Cc1nn(-c2ccccc2)c2c1C1(C(=O)Nc3ccccc31)N1C(=N2)Sc2ccccc21` (stereo unspecified) returned a z-score of -0.00358.

Regarding `O=C(CCSCc1ccc(Cl)cc1)NCCc1ccccc1`, the z-score is -0.0466.

`O=C(CSc1nnc(-c2cccs2)o1)N1CCCc2ccccc21` gave a z-score of -0.194.
